{
  "source": "PubChem BioAssay AID2546",
  "about": "(National Center for Advancing Translational Sciences (NCATS), 2010)",
  "note": "Out of some 310,000 compounds screened, about 11,000 (3.5%) were called active. This list was built around the results that the source calls inconclusive (neither active nor inactive); the mix of calls is not that of the screen. Calls follow the shape of the dose curve; as a rule, active = well fitted inhibition curve with a large enough effect; inconclusive = small, poorly fitted or top-dose-only effect, or effect the other way; inactive = flat fitted curve, though single readings scatter. Potencies of inconclusive entries are left out as doubtful fits. % is scaled to controls: 0 for no effect and ±100 for the full control effect; potency is read from the fitted curve at half-maximal effect; tags tell the direction and shape of the fitted curve.",
  "data": [
    {"experiment": "VP16 counterscreen qHTS for inhibitors of ROR gamma transcriptional activity;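 also: Gal4-VP16 expression switched on by copper sulfate through the metallothionein promoter; nearly all actives have a fitted effect of over 50% in size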", "conditions": "Drosophila S2 Gal4-VP16 UAS-luciferase, luminescence, 20 h; activity, negative = inhibition: at 53.6 µM (top of the series)", "values": [
      {"compound": "O=Nc1ccc(NOC(=O)c2ccccc2)cc1", "Potency": "inconclusive [inhibitor, single point]"},
      {"compound": "CC(C)(C)OC(=O)N1CCC(Cc2cc(-c3ccccc3)no2)(C(=O)O)CC1", "activity, negative = inhibition": "inactive: -1.15%"},
      {"compound": "Cc1cccc(CNS(=O)(=O)c2ccc(-c3cnc(C4CC4)o3)cc2)c1", "activity, negative = inhibition": "inactive: -17.6%"},
      {"compound": "CN(C)/C=C(\\C#N)C(=O)Nc1ccc(O)cc1F", "Potency": "inconclusive [inhibitor, single point]"},
      {"compound": "O=C(Nc1cccc(S(=O)(=O)N2CCCCC2)c1)c1ccc2ccccc2n1", "Potency": "inconclusive [activator, single point]"},
      {"compound": "CN(C)c1ccc(-c2nc3cc(N)ccc3o2)cc1", "Potency": "active: 7.08 µM"},
      {"compound": "CN(c1ccccc1)S(=O)(=O)c1cccc(NC(=O)c2ccncc2)c1", "Potency": "inconclusive [inhibitor, single point]"},
      {"compound": "CCOc1ccc(N(C)Cc2cc(=O)oc3ccc(OCC)cc23)cc1", "activity, negative = inhibition": "inactive: 1.63%"},
      {"compound": "CC(C)CN(C[C@@H](O)[C@H](Cc1ccccc1)NC(=O)O[C@H]1CO[C@H]2OCC[C@H]21)S(=O)(=O)c1ccc(N)cc1", "activity, negative = inhibition": "inactive: -0.572%"},
      {"compound": "Cc1ccc2nc(SC(C)C(=O)Nc3cccc([N+](=O)[O-])c3)[nH]c2c1", "note": "(centres undefined)", "Potency": "inconclusive [inhibitor, partial curve]"},
      {"compound": "COc1cnc(-c2ccccn2)nc1Oc1ccccc1", "Potency": "inconclusive [inhibitor, single point]"},
      {"compound": "Clc1ccsc1-c1csc(-c2cccnc2)n1", "Potency": "inconclusive [inhibitor, partial curve]"},
      {"compound": "Cc1ccc(CN2C(=O)/C(=C\\c3ccc(C(=O)NCc4cccnc4)cc3)Oc3ccccc32)cc1", "Potency": "inconclusive [inhibitor, single point]"},
      {"compound": "O=S(=O)(NCc1ccccc1)c1ccc(-n2cccn2)cc1", "activity, negative = inhibition": "inactive: 2.37%"},
      {"compound": "COCCn1c(=O)c(CCc2ccccc2)nc2cnc(N3CCN(C)CC3)nc21", "activity, negative = inhibition": "inactive: -6.03%"},
      {"compound": "CCn1c(-c2cc(Br)cc(OC)c2O)nc2cc(S(=O)(=O)N(C)C)ccc21", "Potency": "active: 7.94 µM"},
      {"compound": "Cc1ccc(CNC(=O)C2CC(c3ccccc3F)=NO2)cc1", "note": "(centres undefined)", "activity, negative = inhibition": "inactive: 17%"},
      {"compound": "O=C(Nc1cccc2ccccc12)c1ccc([N+](=O)[O-])o1", "Potency": "active: 12.6 µM"},
      {"compound": "O=C(/C=C/c1ccc(F)cc1)Nc1nc2ccccc2[nH]1", "Potency": "inconclusive [inhibitor, single point]"},
      {"compound": "COc1ccc(-c2csc(Cc3nc(O)cs3)n2)cc1", "Potency": "inconclusive [activator, full curve]"},
      {"compound": "CC(OC(=O)c1ccccc1)C(=O)NCCC1=CCCCC1", "note": "(centres undefined)", "activity, negative = inhibition": "inactive: 3.14%"},
      {"compound": "CSCCC(/C(O)=C(\\C#N)c1nc2ccccc2[nH]1)N1C(=O)c2ccccc2C1=O", "note": "(centres undefined)", "Potency": "active: 17.8 µM"},
      {"compound": "O=S(=O)(Nc1cccnc1)c1ccc(Br)c2ccccc12", "activity, negative = inhibition": "inactive: -21.9%"},
      {"compound": "COc1cc(/C=C2\\SC(N)=NC2=O)ccc1O", "Potency": "inconclusive [inhibitor, single point]"},
      {"compound": "N#C/C(=C\\C=C\\c1ccccc1[N+](=O)[O-])C(=O)NCc1ccccc1", "Potency": "inconclusive [inhibitor, single point]"},
      {"compound": "CCOC(=O)c1c(-c2cccc([N+](=O)[O-])c2)csc1NC(=O)C1CCCCC1", "Potency": "active: 10 µM"},
      {"compound": "CCc1cc2c(=O)n(CCC(C)C)c(=S)[nH]c2s1", "Potency": "active: 1.41 µM"},
      {"compound": "Cc1cccc(CNc2cc(-c3cccc(C#N)c3)ncn2)c1", "Potency": "active: 12.6 µM"},
      {"compound": "O=C(CSc1nc(NS(=O)(=O)c2ccccc2)cc(=O)[nH]1)Nc1ccc(F)cc1", "Potency": "inconclusive [inhibitor, partial curve]"},
      {"compound": "Cc1cccc(CS(=O)(=O)c2nnc([C@H](Cc3ccccc3)NC(=O)OC(C)(C)C)o2)c1", "Potency": "active: 11.2 µM"},
      {"compound": "COC(=O)Cn1c(SCc2ccccc2)nc2ccccc21", "Potency": "inconclusive [activator, single point]"},
      {"compound": "O=C(c1cccs1)N1CCC(c2nc3ccccc3s2)CC1", "Potency": "inconclusive [inhibitor, single point]"},
      {"compound": "CCOc1ccc(OCC)c(NC(=O)CN2CCN(c3cc(C)ccc3C)CC2)c1", "activity, negative = inhibition": "inactive: -4.72%"},
      {"compound": "O=C(CN1CCN(c2ccccc2O)CC1)Nc1ccc([N+](=O)[O-])cc1Br", "Potency": "inconclusive [inhibitor, full curve]"},
      {"compound": "Cc1ccccc1NC(=O)c1cc(S(=O)(=O)c2ccccc2)ccc1Cl", "activity, negative = inhibition": "inactive: 0.818%"},
      {"compound": "Cc1ccc(-n2c(C)cc(/C=N/NC(=O)CC3(C)OCCO3)c2C)cc1", "Potency": "inconclusive [activator, full curve, poor fit]"},
      {"compound": "O=C(Nc1ccc2oc(-c3cccnc3)nc2c1)c1ccc([N+](=O)[O-])o1", "activity, negative = inhibition": "inactive: 10.2%"},
      {"compound": "CCOc1ccc(C2C(C#N)=C(N)SC(N)=C2C#N)c(OCC)c1", "Potency": "inconclusive [inhibitor, single point]"},
      {"compound": "CCn1c(SCC(=O)N/N=C/c2ccc(C)s2)nc2ccccc21", "Potency": "inconclusive [inhibitor, single point]"},
      {"compound": "Cc1ccc(S(=O)(=O)CC2CSc3nc4ccccc4n32)cc1", "note": "(centres undefined)", "Potency": "active: 1.12 µM"},
      {"compound": "N#C/C(=C\\Nc1ccc(Cl)cn1)S(=O)(=O)c1ccccc1", "activity, negative = inhibition": "inactive: -10.1%"},
      {"compound": "CCNc1ccc(Br)cc(C(=O)/C=C/c2ccc(Cl)cc2)c1=O", "Potency": "inconclusive [inhibitor, single point]"},
      {"compound": "Cc1csc(SCC(=O)Nc2cccc3nsnc23)n1", "Potency": "inconclusive [activator, partial curve, poor fit]"},
      {"compound": "Clc1cccc(Cl)c1CSc1nnc(-c2sccc2-n2cccc2)o1", "Potency": "inconclusive [inhibitor, single point]"},
      {"compound": "COc1ccc(C(=O)N2CCC(n3c(C)nc4cc(F)ccc43)CC2)cc1OC", "activity, negative = inhibition": "inactive: 7.14%"},
      {"compound": "Cc1cc(N2CCOCC2)nc(N2CCOCC2)n1", "Potency": "inactive"},
      {"compound": "COc1ccccc1NC(=O)Cn1c(CCC(=O)O)ccc1-c1ccc(C)cc1", "Potency": "inconclusive [inhibitor, partial curve]"},
      {"compound": "COC(=O)c1nn(-c2ccc(-c3ccccc3)cc2)cc1O", "Potency": "inconclusive [inhibitor, single point]"},
      {"compound": "CN1/C(=C\\C(=O)Nc2cccc(Cl)c2)C(C)(C)c2ccccc21", "Potency": "inconclusive [inhibitor, single point]"}
    ]}
  ]
}
